IC50 is the fitted dose that halves viability relative to control wells, and lower means more sensitive; fits outside the tested doses are given as limits. The AUC spans the tested range (256-fold, ending at the top dose) of the same fit; the more sensitive the line, the further below 1. For some of these results: A top dose marked as inferred is not printed in the source and was worked back from the curve model. For some of these results: Where an entry number is given, a second screen of the drug exists; the two often differ.
Experiments:
Assay in all cases: Viability of human cancer cell lines after 72 h of drug (GDSC screen)
[1] = compound: C/C(O)=C(\C#N)C(=O)Nc1cc(Br)ccc1Br [LFM-A13]; conditions: top dose 16 µM; top dose inferred
Method: (§1)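 Human cancer cell lines in 384-well plates, medium with 10% serum, drug for 72 h over a 256-fold dose range (nine 2-fold or five 4-fold steps up to the top dose). Adherent lines were fixed and stained with the nucleic acid dye Syto60, suspension lines read with resazurin; signal relative to control wells, capped at 0 and 100%. One two-parameter sigmoid per drug and line, fitted in a mixed model over all curves with the slope shared within a line.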

[2] = compound: CC(C)c1ccccc1Cc1cc(C(=O)Nc2ccc(S(=O)(=O)c3ccccc3C(C)(C)C)cc2)c(O)c(O)c1O [TW-37]; conditions: top dose 5 µM
Method: as §1

[3] = compound: CC(O)(CS(=O)(=O)c1ccc(F)cc1)C(=O)Nc1ccc(C#N)c(C(F)(F)F)c1 [Bicalutamide]; conditions: top dose inferred
Method: as §1

[4] = compound: CCNC(=O)c1noc(-c2cc(C(C)C)c(O)cc2O)c1-c1ccc(CN2CCOCC2)cc1 [AUY922]; conditions: top dose 0.256 µM; top dose inferred
Method: as §1

[5] = compound: Cc1ccc(Nc2cc(-c3cccc(N4C(=O)c5ccccc5C4=O)c3)ncn2)cc1NS(C)(=O)=O [KIN001-270]; conditions: top dose 20 µM; top dose inferred
Method: as §1

[6] = compound: Cc1cn(-c2cc(NC(=O)c3ccc(C)c(Nc4nccc(-c5cccnc5)n4)c3)cc(C(F)(F)F)c2)cn1 [Nilotinib]; conditions: top dose 2 µM
Method: as §1

[7] = compound: NC(=O)c1cccc(-c2cc(Nc3ccc(OC(F)(F)F)cc3)ncn2)c1 [GNF-2]; conditions: top dose 1.28 µM; top dose inferred
Method: as §1

[8] = compound: Nc1ccn([C@@H]2O[C@H](CO)[C@@H](O)C2(F)F)c(=O)n1 [Gemcitabine]; conditions: top dose 1.024 µM
Method: as §1

[9] = compound: O=S(=O)(c1ccccc1)N(CC(F)(F)F)c1ccc(C(O)(C(F)(F)F)C(F)(F)F)cc1 [T0901317]; conditions: top dose 10.24 µM; top dose inferred
Method: as §1

[10] = compound: S=C(NCc1ccc2c(c1)OCO2)N1CCN(c2ncnc3c2oc2ccccc23)CC1 [MP470]; conditions: top dose 20 µM; top dose inferred
Method: as §1

[11] = top dose 1.024 µM, screen: GDSC drug entry 150
[12] = top dose 10 µM, screen: GDSC drug entry 1502

Row | Cell Line | AUC [1] | IC50 [1] | AUC [2] | IC50 [2] | AUC [3, 11] | IC50 [3, 11] | AUC [3, 12] | IC50 [3, 12] | AUC [4] | IC50 [4] | AUC [5] | IC50 [5] | AUC [6] | IC50 [6] | AUC [7] | IC50 [7] | AUC [8] | IC50 [8] | AUC [9] | IC50 [9] | AUC [10] | IC50 [10]
1 | LU-134-A (small cell lung carcinoma, suspension) | 0.973 | > 16000 nM | 0.717 | 1340 nM | 0.987 | > 1020 nM | 0.985 | > 10000 nM | 0.587 | 28.2 nM | 0.982 | > 20000 nM | 0.977 | > 2000 nM | 0.987 | > 1280 nM | 0.536 | 80.8 nM | 0.986 | > 10200 nM | 0.882 | > 20000 nM
2 | NCI-H1694 (small cell lung carcinoma, suspension) | 0.985 | > 16000 nM | 0.646 | 789 nM | 0.989 | > 1020 nM | 0.988 | > 10000 nM | 0.914 | > 256 nM | 0.974 | > 20000 nM | 0.983 | > 2000 nM | 0.989 | > 1280 nM | 0.54 | 82.2 nM | 0.954 | > 10200 nM | 0.837 | 13300 nM
3 | COLO-320-HSR (large intestine, suspension) | 0.988 | > 16000 nM | 0.517 | 345 nM | 0.988 | > 1020 nM | 0.985 | > 10000 nM | 0.659 | 41.4 nM | 0.957 | > 20000 nM | 0.979 | > 2000 nM | 0.986 | > 1280 nM | 0.468 | 53.1 nM | 0.962 | > 10200 nM | 0.94 | > 20000 nM
4 | HDLM-2 (Hodgkin lymphoma, suspension) | 0.971 | > 16000 nM | 0.836 | 3250 nM | 0.988 | > 1020 nM | 0.985 | > 10000 nM | 0.604 | 30.7 nM | 0.989 | > 20000 nM | 0.958 | > 2000 nM | 0.988 | > 1280 nM | 0.868 | 905 nM | 0.98 | > 10200 nM | 0.958 | > 20000 nM
5 | MSTO-211H (mesothelioma, adherent) | 0.99 | > 16000 nM | 0.681 | 949 nM | 0.99 | > 1020 nM | – | – | 0.991 | > 256 nM | 0.987 | > 20000 nM | 0.963 | > 2000 nM | 0.991 | > 1280 nM | 0.782 | 386 nM | 0.949 | > 10200 nM | 0.707 | 4480 nM
6 | A498 (kidney, adherent) | 0.929 | > 16000 nM | 0.724 | 1900 nM | 0.959 | > 1020 nM | 0.972 | > 10000 nM | 0.974 | > 256 nM | 0.975 | > 20000 nM | 0.976 | > 2000 nM | 0.888 | > 1280 nM | 0.971 | > 1020 nM | 0.979 | > 10200 nM | 0.954 | > 20000 nM
